{
  "source": "paper PMC9911399",
  "about": "“Two distinct binding modes provide the RNA-binding protein RbFox with extraordinary sequence specificity”",
  "binders": {"B1": {"name": "UAAGACU (DNA:RNA)", "RNA": "GGGAGACCGGAAUUCAGAUUGUCCUAAGACUUUAAAUCCCGUCGUAGCCACCA", "DNA 1": "CAATCTGAATTCCGGTCTCCC", "DNA 2": "TGGTGGCTACGACGGGATT"}, "B2": {"name": "ACUGAUG (DNA:RNA)", "RNA": "B1 RNA with U25A, A26C, A27U, C30U, U31G", "DNA 1": "CAATCTGAATTCCGGTCTCCC", "DNA 2": "TGGTGGCTACGACGGGATT"}, "B3": {"name": "GACCCAU (DNA:RNA)", "RNA": "B1 RNA with U25G, A27C, G28C, A29C, C30A", "DNA 1": "CAATCTGAATTCCGGTCTCCC", "DNA 2": "TGGTGGCTACGACGGGATT"}, "B4": {"name": "CCUCGGG (DNA:RNA)", "RNA": "GGGAGACCGGAAUUCAGAUUGUCCCCUCGGGUUAAAUCCCGUCGUAGCCACCA", "DNA 1": "CAATCTGAATTCCGGTCTCCC", "DNA 2": "TGGTGGCTACGACGGGATT"}, "B5": {"name": "CCUCUCG (DNA:RNA)", "RNA": "B4 RNA with G29U, G30C", "DNA 1": "CAATCTGAATTCCGGTCTCCC", "DNA 2": "TGGTGGCTACGACGGGATT"}, "B6": {"name": "UCUGCCU (DNA:RNA)", "RNA": "B1 RNA with A26C, A27U, A29C", "DNA 1": "CAATCTGAATTCCGGTCTCCC", "DNA 2": "TGGTGGCTACGACGGGATT"}, "B7": {"name": "UGUAUAU (DNA:RNA)", "RNA": "B1 RNA with A26G, A27U, G28A, A29U, C30A", "DNA 1": "CAATCTGAATTCCGGTCTCCC", "DNA 2": "TGGTGGCTACGACGGGATT"}, "B8": {"name": "AUCCCAU (DNA:RNA)", "RNA": "B4 RNA with C25A, C26U, U27C, G29C, G30A, G31U", "DNA 1": "CAATCTGAATTCCGGTCTCCC", "DNA 2": "TGGTGGCTACGACGGGATT"}, "B9": {"name": "GUCCCUA (DNA:RNA)", "RNA": "B4 RNA with C25G, C26U, U27C, G29C, G30U, G31A", "DNA 1": "CAATCTGAATTCCGGTCTCCC", "DNA 2": "TGGTGGCTACGACGGGATT"}, "B10": {"name": "UGUGUCA (DNA:RNA)", "RNA": "B1 RNA with A26G, A27U, A29U, U31A", "DNA 1": "CAATCTGAATTCCGGTCTCCC", "DNA 2": "TGGTGGCTACGACGGGATT"}, "B11": {"name": "GACAGGA (DNA:RNA)", "RNA": "B4 RNA with C25G, C26A, U27C, C28A, G31A", "DNA 1": "CAATCTGAATTCCGGTCTCCC", "DNA 2": "TGGTGGCTACGACGGGATT"}, "B12": {"name": "CAAGCCA (DNA:RNA)", "RNA": "B1 RNA with U25C, A29C, U31A", "DNA 1": "CAATCTGAATTCCGGTCTCCC", "DNA 2": "TGGTGGCTACGACGGGATT"}, "B13": {"name": "GGGCCUC (DNA:RNA)", "RNA": "B4 RNA with C25G, C26G, U27G, G29C, G30U, G31C", "DNA 1": "CAATCTGAATTCCGGTCTCCC", "DNA 2": "TGGTGGCTACGACGGGATT"}, "B14": {"name": "GAGAACU (DNA:RNA)", "RNA": "B1 RNA with U25G, A27G, G28A", "DNA 1": "CAATCTGAATTCCGGTCTCCC", "DNA 2": "TGGTGGCTACGACGGGATT"}, "B15": {"name": "ACUGGCA (DNA:RNA)", "RNA": "B4 RNA with C25A, C28G, G30C, G31A", "DNA 1": "CAATCTGAATTCCGGTCTCCC", "DNA 2": "TGGTGGCTACGACGGGATT"}, "B16": {"name": "GUGGCUG (DNA:RNA)", "RNA": "B4 RNA with C25G, C26U, U27G, C28G, G29C, G30U", "DNA 1": "CAATCTGAATTCCGGTCTCCC", "DNA 2": "TGGTGGCTACGACGGGATT"}, "B17": {"name": "ACAGCUC (DNA:RNA)", "RNA": "B1 RNA with U25A, A26C, A29C, C30U, U31C", "DNA 1": "CAATCTGAATTCCGGTCTCCC", "DNA 2": "TGGTGGCTACGACGGGATT"}, "B18": {"name": "UUCCUAG (DNA:RNA)", "RNA": "B4 RNA with C25U, C26U, U27C, G29U, G30A", "DNA 1": "CAATCTGAATTCCGGTCTCCC", "DNA 2": "TGGTGGCTACGACGGGATT"}, "B19": {"name": "AUGAACA (DNA:RNA)", "RNA": "B1 RNA with U25A, A26U, A27G, G28A, U31A", "DNA 1": "CAATCTGAATTCCGGTCTCCC", "DNA 2": "TGGTGGCTACGACGGGATT"}, "B20": {"name": "AACCACU (DNA:RNA)", "RNA": "B1 RNA with U25A, A27C, G28C", "DNA 1": "CAATCTGAATTCCGGTCTCCC", "DNA 2": "TGGTGGCTACGACGGGATT"}, "B21": {"name": "GAGGCAG (DNA:RNA)", "RNA": "B1 RNA with U25G, A27G, A29C, C30A, U31G", "DNA 1": "CAATCTGAATTCCGGTCTCCC", "DNA 2": "TGGTGGCTACGACGGGATT"}, "B22": {"name": "UGGACUG (DNA:RNA)", "RNA": "B4 RNA with C25U, C26G, U27G, C28A, G29C, G30U", "DNA 1": "CAATCTGAATTCCGGTCTCCC", "DNA 2": "TGGTGGCTACGACGGGATT"}, "B23": {"name": "GCGUUCU (DNA:RNA)", "RNA": "B1 RNA with U25G, A26C, A27G, G28U, A29U", "DNA 1": "CAATCTGAATTCCGGTCTCCC", "DNA 2": "TGGTGGCTACGACGGGATT"}, "B24": {"name": "AAUGGCU (DNA:RNA)", "RNA": "B1 RNA with U25A, A27U, A29G", "DNA 1": "CAATCTGAATTCCGGTCTCCC", "DNA 2": "TGGTGGCTACGACGGGATT"}, "B25": {"name": "CUAGGAC (DNA:RNA)", "RNA": "B4 RNA with C26U, U27A, C28G, G30A, G31C", "DNA 1": "CAATCTGAATTCCGGTCTCCC", "DNA 2": "TGGTGGCTACGACGGGATT"}, "B26": {"name": "AUGAAAG (DNA:RNA)", "RNA": "B4 RNA with C25A, C26U, U27G, C28A, G29A, G30A", "DNA 1": "CAATCTGAATTCCGGTCTCCC", "DNA 2": "TGGTGGCTACGACGGGATT"}, "B27": {"name": "GUGCAUG (DNA:RNA)", "RNA": "B4 RNA with C25G, C26U, U27G, G29A, G30U", "DNA 1": "CAATCTGAATTCCGGTCTCCC", "DNA 2": "TGGTGGCTACGACGGGATT"}, "B28": {"name": "CGUGGCG (DNA:RNA)", "RNA": "B4 RNA with C26G, C28G, G30C", "DNA 1": "CAATCTGAATTCCGGTCTCCC", "DNA 2": "TGGTGGCTACGACGGGATT"}, "B29": {"name": "AAGAAAC (DNA:RNA)", "RNA": "B1 RNA with U25A, A27G, G28A, C30A, U31C", "DNA 1": "CAATCTGAATTCCGGTCTCCC", "DNA 2": "TGGTGGCTACGACGGGATT"}, "B30": {"name": "GCGUCUA (DNA:RNA)", "RNA": "B4 RNA with C25G, U27G, C28U, G29C, G30U, G31A", "DNA 1": "CAATCTGAATTCCGGTCTCCC", "DNA 2": "TGGTGGCTACGACGGGATT"}, "B31": {"name": "UGAACCU (DNA:RNA)", "RNA": "B1 RNA with A26G, G28A, A29C", "DNA 1": "CAATCTGAATTCCGGTCTCCC", "DNA 2": "TGGTGGCTACGACGGGATT"}},
  "note": "Substitutions are numbered along the chain they refer to; changes in the protein carry UniProt numbers. The list shows a part of the results.",
  "data": [
    {"molecular_target": "T1, RBFOX1 RRM (Homo sapiens, UniProt Q9NWB1 109-208)", "T1 sequence": "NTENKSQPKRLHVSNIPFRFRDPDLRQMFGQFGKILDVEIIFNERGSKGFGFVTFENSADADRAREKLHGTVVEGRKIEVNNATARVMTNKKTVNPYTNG", "assay": "EMSA; HiTS-Eq, 1 nM pool, 10 min; buffer printed only for the single-RNA assays: 10 mM Tris pH 7.5, 150 mM NaCl, 3.4 mM EDTA, 0.001% NP-40, 30 C", "settings": "tags: His6 N-terminal (pET28a); label: 5' 32P", "how_it_was_run": "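These values rest on relative association constants, computed from read-count changes of each RNA species versus the control reaction and normalised to the cognate motif. Reads came from free RNA recovered by 8% native PAGE after purified RbFox RRM (wild type or mutant) at increasing concentrations was equilibrated for 10 min in 50 µL with 1 nM of a 5′-radiolabelled pool with 7 randomized nucleotides and DNA-annealed flanks.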", "values": [
      {"binder": "B1", "binding signal": "0.00739 KA relative to UGCAUGU"},
      {"binder": "B2", "binding signal": "0.0152 KA relative to UGCAUGU"},
      {"binder": "B3", "binding signal": "0.00238 KA relative to UGCAUGU"},
      {"binder": "B4", "binding signal": "0.00382 KA relative to UGCAUGU"},
      {"binder": "B5", "binding signal": "0.00553 KA relative to UGCAUGU"},
      {"binder": "B6", "binding signal": "0.0139 KA relative to UGCAUGU"},
      {"binder": "B7", "binding signal": "0.0126 KA relative to UGCAUGU"},
      {"binder": "B8", "binding signal": "0.000586 KA relative to UGCAUGU"},
      {"binder": "B9", "binding signal": "0.0124 KA relative to UGCAUGU"},
      {"binder": "B10", "binding signal": "0.016 KA relative to UGCAUGU"},
      {"binder": "B11", "binding signal": "0.00822 KA relative to UGCAUGU"},
      {"binder": "B12", "binding signal": "0.00227 KA relative to UGCAUGU"},
      {"binder": "B13", "binding signal": "0.0133 KA relative to UGCAUGU"},
      {"binder": "B14", "binding signal": "0.0125 KA relative to UGCAUGU"},
      {"binder": "B15", "binding signal": "0.0143 KA relative to UGCAUGU"},
      {"binder": "B16", "binding signal": "0.0289 KA relative to UGCAUGU"},
      {"binder": "B17", "binding signal": "0.00303 KA relative to UGCAUGU"},
      {"binder": "B18", "binding signal": "0.00517 KA relative to UGCAUGU"},
      {"binder": "B19", "binding signal": "0.00581 KA relative to UGCAUGU"},
      {"binder": "B20", "binding signal": "0.00154 KA relative to UGCAUGU"},
      {"binder": "B21", "binding signal": "0.0185 KA relative to UGCAUGU"},
      {"binder": "B22", "binding signal": "0.0448 KA relative to UGCAUGU"},
      {"binder": "B23", "binding signal": "0.0151 KA relative to UGCAUGU"},
      {"binder": "B24", "binding signal": "0.0109 KA relative to UGCAUGU"},
      {"binder": "B25", "binding signal": "0.00183 KA relative to UGCAUGU"},
      {"binder": "B26", "binding signal": "0.00866 KA relative to UGCAUGU"},
      {"binder": "B27", "binding signal": "1 KA relative to UGCAUGU"},
      {"binder": "B28", "binding signal": "0.0179 KA relative to UGCAUGU"},
      {"binder": "B29", "binding signal": "0.00334 KA relative to UGCAUGU"},
      {"binder": "B30", "binding signal": "0.00811 KA relative to UGCAUGU"},
      {"binder": "B31", "binding signal": "0.00633 KA relative to UGCAUGU"}
    ]}
  ]
}
